Laboratory results published in PubChem BioAssay (NCATS).
The list shows a part of the results. Further columns of the screen follow, without active or inactive calls. Compounds called inactive in the main read-out are mostly missing here. The note in brackets gives the kind of curve behind each potency; many fits are weak.

test: Cell-based coincidence reporter assay to measure PMP22 gene transcription in S16 Pmp22-F2sN cells - Confirmatory screen (AID 1508646); conditions: S16 Schwann cells Pmp22-F2sN, dual luciferase, 24 h; measured here: FLuc reporter channel
Summary of the method: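 Coincidence reporter read as sequential FLuc then NLuc luminescence (Nano-Glo Dual-Luciferase, 10 min each). Engineered S16 Pmp22-F2sN Schwann cells, 500-1,000 per well in DMEM/10% FBS, were exposed to compounds for 24 h, 37C.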
Tags describe the fitted curve by direction and shape.

SMILES	AC50
CSc1nc2sc3c(c2c(=O)n1-c1ccc(C)cc1)CCCC3	21.7 µM [falling, partial curve]
Cc1ccc(NC(=O)Cn2c(=O)n(Cc3ccc4c(c3)OCO4)c(=O)c3ccc(C(=O)NC4CCCCC4)cc32)c(C)c1	21.7 µM [falling, partial curve]
Cc1ccc(NS(=O)(=O)c2ccc3[nH]c4c(c3c2)CCCC4)cc1N(C)C	19.3 µM [falling, partial curve, poor fit]
CCC(C)NC(=O)CSc1c2c(nc3cc(Cl)ccc13)CCCC2 (stereo not given)	13.7 µM [falling, partial curve]
Clc1cccc(-c2noc3ncnc(NC4CCCCC4)c23)c1	7.69 µM [falling, partial curve]
COc1ccc(C)cc1NC(=O)Cn1c(=O)cc(C)c2c(C)nn(C)c21	12.2 µM [falling, full curve]
Cc1ccc(C(=O)c2oc3ccccc3c2NC(=O)c2nc(S(C)(=O)=O)ncc2Cl)cc1F	10.9 µM [falling, full curve]
CCOc1ccc(NC(=O)c2cc3sc(Cl)cc3n2CC)cc1	30.6 µM [falling, single point]
Cc1ccc(CNC(=O)Cn2c(=O)n(Cc3ccccc3)c(=O)c3sc4ccccc4c32)cc1	19.3 µM [falling, partial curve]
Cc1ccc(C)c(N2CCN(C(=O)C3CCCN(S(=O)(=O)c4ccc5c(c4)oc(=O)n5C)C3)CC2)c1 (stereo not given)	19.3 µM [falling, partial curve, poor fit]
COc1ccc(NC(=O)CSc2c3c(nc4ccc(Cl)cc24)CCCC3)cc1Cl	21.7 µM [falling, partial curve]
CCN1CCOC(=O)C1CC(=O)Nc1cccc(OC)c1 (stereo not given)	43.2 µM [falling, single point]
Cc1ccc(NC(=O)CSc2ncc3c(n2)-c2ccccc2N(C)S3(=O)=O)c(Cl)c1	17.2 µM [falling, partial curve, poor fit]
O=C(c1ccc(CS(=O)c2ccccc2Cl)o1)N1CCN(c2cccc(C(F)(F)F)c2)CC1 (stereo not given)	1.22 µM [falling, full curve]
Cc1cc(C)c(NC(=O)Cn2c(=O)oc3cc(S(=O)(=O)N4CCCCCC4)ccc32)c(C)c1	30.6 µM [falling, partial curve, poor fit]
CCCCOc1ccc(C(C)NC(=O)c2cccc(Nc3nc4ccccc4n4nnnc34)c2)cc1 (stereo not given)	9.68 µM [falling, full curve]
COCCCNC(=O)c1ccc(-n2c(-c3ccccc3)cc3c2CCC(C)C3)cc1 (stereo not given)	4.85 µM [falling, full curve]
CCCn1c(=N)c(C(=O)NC(C)c2ccccc2)cc2c(=O)n3ccccc3nc21 (stereo not given)	5.44 µM [falling, partial curve]
COc1cc2ccccc2cc1C(=O)Nc1ccc2oc(-c3cccc(Cl)c3Cl)nc2c1	12.2 µM [falling, full curve]
Cn1cc(CN(C(=O)Nc2ccccc2)C2CCCCC2)c2ccccc21	10.9 µM [falling, full curve, poor fit]

SMILES	AC50
O=C(CCS(=O)(=O)c1nc(-c2cccs2)cc(C(F)(F)F)n1)Nc1ccc(F)c(Cl)c1	13.7 µM [falling, full curve]
COc1ccc(-c2onc(C)c2C)cc1S(=O)(=O)NCC1CCN(Cc2cccc(F)c2)CC1	19.3 µM [falling, partial curve]
COC(=O)c1ccccc1NC(=O)CSc1c2c(nc3ccc(Cl)cc13)CCCC2	24.3 µM [falling, partial curve]
CCc1ccccc1NC(=O)Cn1nnc(C(=O)NCc2cccs2)c1N	5.44 µM [falling, full curve, poor fit]
Cc1ccc(NC(=O)CSc2nc3ccccc3nc2Cc2ccccc2)c(C)c1	24.3 µM [falling, single point]
CCOc1ccc(C(=O)Nc2ccc3nc(SCc4ccccc4)sc3c2)cc1	19.3 µM [falling, partial curve]
COc1ccc(Nc2ncc(C(=O)N3CCN(c4cccc(Cl)c4)CC3)c3ccccc23)cc1	12.2 µM [falling, full curve, poor fit]
Cc1ccc(C)c(Nc2nn3c(=O)c4ccc(C(=O)NCCc5ccccc5)cc4nc3s2)c1	9.68 µM [falling, full curve]
COc1ccc(-n2nc3c(N4CCCC(C(=O)NCCc5ccccc5C)C4)nnc(C)c3c2C)cc1 (stereo not given)	24.3 µM [falling, partial curve]
Cc1cccc(NC(=O)C2CCCN(c3nnc(-n4c(C)ccc4C)s3)C2)c1C (stereo not given)	17.2 µM [falling, partial curve, poor fit]
O=C(c1ccc(C(F)(F)F)cc1)N1CCC(c2nc(-c3ccc(S(=O)(=O)N4CCCC4)cc3)no2)CC1	9.68 µM [falling, full curve, poor fit]
CCc1ccc(OCC(=O)Nc2cc3oc4ccccc4c3cc2OC)cc1	19.3 µM [falling, partial curve]
Cc1ccc2c(c1)C(=O)C(=O)N2Cc1ccc(OCCC(C)C)cc1	10.9 µM [falling, partial curve]
O=C(CSc1nc2c(sc3ccccc32)c(=O)n1CCCC(=O)NC1CCCC1)Nc1ccc(F)cc1	9.68 µM [falling, partial curve]
CCN(Cc1ccccc1)C(=O)Cn1c(=O)n(-c2ccccc2)c(=O)c2c1c1cc(C)ccc1n2C	19.3 µM [falling, partial curve, poor fit]
CCCn1ccc2c(OCC(=O)Nc3ccccc3C(=O)OCC)cccc2c1=O	13.7 µM [falling, full curve]
CCC(=O)N1CCc2cc(S(=O)(=O)CCC(=O)N3CCN(c4ccc(Cl)cc4)CC3)ccc21	15.3 µM [falling, full curve, poor fit]
CCOC(=O)c1c(C)oc2nc(C)nc(NCCc3ccc(OCC)cc3)c12	12.2 µM [falling, full curve, poor fit]
Cc1ccc(NS(=O)(=O)c2cc(Br)cc3c2N(C(=O)C2CC2)CC3)cc1C	21.7 µM [falling, partial curve]
CC1=Nc2cc(C(=O)NC3CCCC3)ccc2Sc2ccc(C)cc21	3.85 µM [falling, full curve, poor fit]
